Reference: the supplement of paper PMC12067230
The data scatter; read single values as rough.

assay: amyloid nucleation score relative to library mode (yeast Sup35 reporter selection) (log enrichment difference); higher = more amyloid nucleation; sequences are the first 22 residues of the Bri2 peptide extended by up to 12 random residues; conditions: random library (experiment): 1;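 active = nucleation score significantly above 0 at FDR 0.05; inactive = not significantly above 0 or absent from output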
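Also: [psi-pin-] Saccharomyces cerevisiae expressing SupN fusions, induced by 100 µM Cu2SO4, selected 7 d at 30 °C without adenine and uracil, scored by deep sequencing of output versus input.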

**Q.** For EASNCFAIRHFENKFAVETLICLWKWRGKGTAEG, which amyloid nucleation score is on record?
**A.** 0.335

**Q.** With EASNCFAIRHFENKFAVETLICFDSDNFSHACSL as the sequence, how does the amyloid nucleation score read?
**A.** 4.11

**Q.** For EASNCFAIRHFENKFAVETLICCMPGPYLNNFRV, which amyloid nucleation score is on record?
**A.** 3.25

**Q.** Which amyloid nucleation score does the source give for EASNCFAIRHFENKFAVETLICIVLS here?
**A.** inactive

**Q.** For EASNCFAIRHFENKFAVETLICGWLVMIRVIDWE, which amyloid nucleation score is on record?
**A.** inactive

**Q.** With EASNCFAIRHFENKFAVETLICQTGFTSGLVFSS as the sequence, how does the amyloid nucleation score read?
**A.** inactive

**Q.** For EASNCFAIRHFENKFAVETLICLCHWKLLIVNGV, which amyloid nucleation score is on record?
**A.** inactive

**Q.** Which amyloid nucleation score does the source give for EASNCFAIRHFENKFAVETLICKRQGRWSWVTWG here?
**A.** inactive

**Q.** For EASNCFAIRHFENKFAVETLICAWMGVMRVFQST, which amyloid nucleation score is on record?
**A.** inactive

**Q.** Which amyloid nucleation score does the source give for EASNCFAIRHFENKFAVETLICDSWRKYYDGYPR here?
**A.** 3.72

**Q.** With EASNCFAIRHFENKFAVETLICFFRPRLCNECCC as the sequence, how does the amyloid nucleation score read?
**A.** 1.3

**Q.** With EASNCFAIRHFENKFAVETLICMGATRLSRILHT as the sequence, how does the amyloid nucleation score read?
**A.** inactive

**Q.** For EASNCFAIRHFENKFAVETLICWLRTCVHWVQME, which amyloid nucleation score is on record?
**A.** inactive

**Q.** For EASNCFAIRHFENKFAVETLICLQHTKLSNPVYS, which amyloid nucleation score is on record?
**A.** inactive

**Q.** Which amyloid nucleation score does the source give for EASNCFAIRHFENKFAVETLICGGLMHCDGITCS here?
**A.** -0.0755

**Q.** For EASNCFAIRHFENKFAVETLICYTRGAMACGWGV, which amyloid nucleation score is on record?
**A.** 3.75

same assay, conditions: random library (experiment): 2

**Q.** Which amyloid nucleation score does the source give for EASNCFAIRHFENKFAVETLICMGRIDWSDDSHS here?
**A.** inactive

**Q.** For EASNCFAIRHFENKFAVETLICNRLVIESVVVDG, which amyloid nucleation score is on record?
**A.** -0.262

**Q.** With EASNCFAIRHFENKFAVETLICDDSM as the sequence, how does the amyloid nucleation score read?
**A.** inactive

**Q.** Which amyloid nucleation score does the source give for EASNCFAIRHFENKFAVETLICIMEYVLARIHGR here?
**A.** inactive

**Q.** With EASNCFAIRHFENKFAVETLICTCDGYCSRFIM as the sequence, how does the amyloid nucleation score read?
**A.** inactive

**Q.** With EASNCFAIRHFENKFAVETLICCIICVKFTVFLH as the sequence, how does the amyloid nucleation score read?
**A.** inactive

**Q.** With EASNCFAIRHFENKFAVETLICFMLICRSYLCAW as the sequence, how does the amyloid nucleation score read?
**A.** inactive

**Q.** For EASNCFAIRHFENKFAVETLICCFSGKSMSKGWL, which amyloid nucleation score is on record?
**A.** 6.63

**Q.** Which amyloid nucleation score does the source give for EASNCFAIRHFENKFAVETLICRMKFEMFFYASK here?
**A.** inactive

**Q.** For EASNCFAIRHFENKFAVETLICTFGLSTMFSTSF, which amyloid nucleation score is on record?
**A.** inactive

**Q.** For EASNCFAIRHFENKFAVETLICESLPNGTRPNCV, which amyloid nucleation score is on record?
**A.** 1.19

**Q.** Which amyloid nucleation score does the source give for EASNCFAIRHFENKFAVETLICGMYPSFQ here?
**A.** 5.85

**Q.** Which amyloid nucleation score does the source give for EASNCFAIRHFENKFAVETLICICHMGCHENM here?
**A.** 5.99

**Q.** For EASNCFAIRHFENKFAVETLICWWLGWMVGYRYW, which amyloid nucleation score is on record?
**A.** inactive

**Q.** For EASNCFAIRHFENKFAVETLICTNVKWCRTDFWL, which amyloid nucleation score is on record?
**A.** 2.54

**Q.** With EASNCFAIRHFENKFAVETLICRGFIKVWAWMLV as the sequence, how does the amyloid nucleation score read?
**A.** inactive

**Q.** With EASNCFAIRHFENKFAVETLICYLDYLWYVKVLT as the sequence, how does the amyloid nucleation score read?
**A.** -0.0488

**Q.** Which amyloid nucleation score does the source give for EASNCFAIRHFENKFAVETLICYWRAGDNEGTSK here?
**A.** inactive

**Q.** For EASNCFAIRHFENKFAVETLICFYCLFLWISRTW, which amyloid nucleation score is on record?
**A.** inactive

**Q.** For EASNCFAIRHFENKFAVETLICNMFVELCCARLS, which amyloid nucleation score is on record?
**A.** inactive

**Q.** Which amyloid nucleation score does the source give for EASNCFAIRHFENKFAVETLICHGVLDSSLRCLF here?
**A.** 3.2

**Q.** Which amyloid nucleation score does the source give for EASNCFAIRHFENKFAVETLICFYRPQGTLVDLG here?
**A.** inactive

**Q.** Which amyloid nucleation score does the source give for EASNCFAIRHFENKFAVETLICVVTC here?
**A.** inactive

same assay, conditions: random library (experiment): 3

**Q.** Which amyloid nucleation score does the source give for EASNCFAIRHFENKFAVETLICVARSMMRYPRFS here?
**A.** inactive

**Q.** Which amyloid nucleation score does the source give for EASNCFAIRHFENKFAVETLICCMHGFPYGVMSL here?
**A.** 6.23

**Q.** Which amyloid nucleation score does the source give for EASNCFAIRHFENKFAVETLICYRGVFCNMYLCV here?
**A.** 7.57

**Q.** For EASNCFAIRHFENKFAVETLICLSRWQ, which amyloid nucleation score is on record?
**A.** 4.47

**Q.** For EASNCFAIRHFENKFAVETLICLMFDCSSVGSCP, which amyloid nucleation score is on record?
**A.** 7.87

**Q.** Which amyloid nucleation score does the source give for EASNCFAIRHFENKFAVETLICYHRGVVFGCVWN here?
**A.** 5.86

**Q.** Which amyloid nucleation score does the source give for EASNCFAIRHFENKFAVETLICPT here?
**A.** 0.649

**Q.** For EASNCFAIRHFENKFAVETLICLCEQSYRYGKRY, which amyloid nucleation score is on record?
**A.** 3.31

**Q.** For EASNCFAIRHFENKFAVETLICCAYTPLFNRIRC, which amyloid nucleation score is on record?
**A.** 4.94
